Source: the supplement of paper PMC4967469
A lower IC50 marks a more sensitive line; where the fit passes the top or lowest dose, that dose stands as a limit. The AUC spans the tested range (256-fold, ending at the top dose) of the same fit; it is 1 without any effect and falls as sensitivity rises. The top dose, if marked as inferred, is not printed in the source and was worked back from the curve model.

Compound: C=CC(=O)Nc1cccc(Nc2nc(NC3CCC(N(C)C)CC3)nc3c2ncn3C(C)C)c1 [WZ3105]
Assay: Viability of human cancer cell lines after 72 h of drug (GDSC screen)
Settings: top dose inferred
Protocol: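 Human cancer cell lines in 384-well plates, medium with 10% serum, drug for 72 h over a 256-fold dose range (nine 2-fold or five 4-fold steps up to the top dose). Adherent lines were fixed and stained with the nucleic acid dye Syto60, suspension lines read with resazurin; signal relative to control wells, capped at 0 and 100%. One two-parameter sigmoid per drug and line, fitted in a mixed model over all curves with the slope shared within a line.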

| Cell Line | AUC | IC50 |
| --- | --- | --- |
| PANC-02-03 (pancreas, adherent, top dose 1.28 µM) | 0.799 | 0.758 µM |
| PANC-03-27 (pancreas, adherent, top dose 1.28 µM) | 0.659 | 0.215 µM |
| PANC-04-03 (pancreas, adherent, top dose 1.28 µM) | 0.904 | > 1.28 µM |
| PANC-08-13 (pancreas, adherent, top dose 1.28 µM) | 0.754 | 0.545 µM |
| PANC-10-05 (pancreas, adherent, top dose 1.28 µM) | 0.72 | 0.408 µM |
| PC-3 (prostate, adherent, top dose 1.28 µM) | 0.827 | 1.02 µM |
| PC-3 [JPC-3] (lung adenocarcinoma, adherent, top dose 1.28 µM) | 0.747 | 0.526 µM |
| PC-14 (lung adenocarcinoma, adherent, top dose 1.28 µM) | 0.638 | 0.183 µM |
| PCI-4B (head and neck, adherent, top dose 1.28 µM) | 0.721 | 0.325 µM |
| PCI-6A (head and neck, adherent, top dose 1.28 µM) | 0.717 | 0.323 µM |
| PCI-15A (head and neck, adherent, top dose 1.28 µM) | 0.829 | 0.808 µM |
| PCI-30 (head and neck, adherent, top dose 1.28 µM) | 0.961 | > 1.28 µM |
| PCI-38 (head and neck, adherent, top dose 1.28 µM) | 0.788 | 0.565 µM |
| PE/CA-PJ15 (head and neck, adherent, top dose 1.28 µM) | 0.945 | > 1.28 µM |
| PEO1 (ovary, adherent, top dose 1.28 µM) | 0.987 | > 1.28 µM |
| PF-382 (T-cell lymphoblastic leukaemia, suspension, top dose 10.24 µM) | 0.132 | 0.055 µM |
| PFSK-1 (medulloblastoma, adherent, top dose 1.28 µM) | 0.737 | 0.401 µM |
| PL4 (pancreas, adherent, top dose 1.28 µM) | 0.929 | > 1.28 µM |
| PL18 (pancreas, adherent, top dose 1.28 µM) | 0.84 | 0.871 µM |
| PL-21 (acute myeloid leukaemia, suspension, top dose 1.28 µM) | 0.578 | 0.136 µM |

| Cell Line | AUC | IC50 |
| --- | --- | --- |
| PSN1 (pancreas, adherent, top dose 1.28 µM) | 0.629 | 0.17 µM |
| QGP-1 (pancreas, adherent, top dose 1.28 µM) | 0.759 | 0.736 µM |
| QIMR-WIL (acute myeloid leukaemia, suspension, top dose 1.28 µM) | 0.732 | 0.357 µM |
| RC-K8 (B-cell lymphoma, suspension, top dose 1.28 µM) | 0.963 | > 1.28 µM |
| RCC10RGB (kidney, adherent, top dose 1.28 µM) | 0.954 | > 1.28 µM |
| RCC-AB (kidney, adherent, top dose 1.28 µM) | 0.911 | > 1.28 µM |
| RCC-ER (kidney, adherent, top dose 1.28 µM) | 0.98 | > 1.28 µM |
| RCC-FG2 (kidney, adherent, top dose 1.28 µM) | 0.978 | > 1.28 µM |
| RCC-JF (kidney, adherent, top dose 1.28 µM) | 0.932 | > 1.28 µM |
| RCC-JW (kidney, adherent, top dose 1.28 µM) | 0.707 | 0.312 µM |
| RCC-MF (kidney, adherent, top dose 1.28 µM) | 0.915 | > 1.28 µM |
| RCM-1 (large intestine, adherent, top dose 1.28 µM) | 0.976 | > 1.28 µM |
| RD (rhabdomyosarcoma, adherent, top dose 1.28 µM) | 0.727 | 0.379 µM |
| REH (B-cell leukaemia, suspension, top dose 1.28 µM) | 0.46 | 0.0627 µM |
| RERF-GC-1B (stomach, adherent, top dose 1.28 µM) | 0.835 | 0.985 µM |
| RERF-LC-KJ (lung adenocarcinoma, adherent, top dose 1.28 µM) | 0.725 | 0.357 µM |
| RERF-LC-MS (lung adenocarcinoma, adherent, top dose 1.28 µM) | 0.98 | > 1.28 µM |
| RERF-LC-Sq1 (lung squamous cell carcinoma, adherent, top dose 1.28 µM) | 0.86 | > 1.28 µM |
| RF-48 (stomach, adherent, top dose 1.28 µM) | 0.778 | 0.584 µM |
| RH-1 (rhabdomyosarcoma, adherent, top dose 1.28 µM) | 0.802 | 0.512 µM |

| Cell Line | AUC | IC50 |
| --- | --- | --- |
| RH-41 (rhabdomyosarcoma, adherent, top dose 1.28 µM) | 0.893 | 1.09 µM |
| RKN (ovary, adherent, top dose 1.28 µM) | 0.775 | 0.537 µM |
| RKO (large intestine, adherent, top dose 10.24 µM) | 0.319 | 0.209 µM |
| RL95-2 (endometrium, adherent, top dose 1.28 µM) | 0.896 | > 1.28 µM |
| RL (B-cell lymphoma, suspension, top dose 1.28 µM) | 0.716 | 0.307 µM |
| RMG-I (ovary, adherent, top dose 1.28 µM) | 0.794 | 0.704 µM |
| RO82-W-1 (thyroid, adherent, top dose 1.28 µM) | 0.96 | > 1.28 µM |
| ROS-50 (B-cell leukaemia, suspension, top dose 1.28 µM) | 0.961 | > 1.28 µM |
| RPMI-2650 (head and neck, adherent, top dose 1.28 µM) | 0.829 | 0.885 µM |
| RPMI-6666 (Hodgkin lymphoma, suspension, top dose 1.28 µM) | 0.596 | 0.155 µM |
| RPMI-7951 (melanoma, adherent, top dose 1.28 µM) | 0.912 | > 1.28 µM |
| RPMI-8226 (myeloma, suspension, top dose 1.28 µM) | 0.528 | 0.0946 µM |
| RPMI-8402 (T-cell lymphoblastic leukaemia, suspension, top dose 10.24 µM) | 0.15 | 0.0692 µM |
| RPMI-8866 (chronic myeloid leukaemia, suspension, top dose 1.28 µM) | 0.71 | 0.297 µM |
| RS4-11 (leukaemia, suspension, top dose 1.28 µM) | 0.505 | 0.0824 µM |
| RT4 (bladder, adherent, top dose 1.28 µM) | 0.71 | 0.325 µM |
| RT-112 (bladder, adherent, top dose 1.28 µM) | 0.77 | 0.524 µM |
| RVH-421 (melanoma, adherent, top dose 1.28 µM) | 0.782 | 0.757 µM |
| RXF393 (kidney, adherent, top dose 1.28 µM) | 0.66 | 0.265 µM |
